{
  "source": "PubChem BioAssay AID1030",
  "about": "(National Center for Advancing Translational Sciences (NCATS), 2008)",
  "note": "About 16,000 (7.3%) of roughly 220,000 compounds were called active. Inconclusive means that the source gave no clear call. Such entries were picked first, then a sample of the others. Calls follow the shape of the dose curve; as a rule, active = well fitted inhibition curve with a large enough effect (not every such curve was filed as active); inconclusive = small, poorly fitted or top-dose-only effect, or another doubt; inactive = no such curve, though single readings can be large or run the other way. Potencies of inconclusive entries are left out as doubtful fits. Potency is read from the fitted curve at half-maximal effect; tags tell the direction and shape of the fitted curve.",
  "data": [
    {"molecular_target": "Aldehyde dehydrogenase 1A1 (Homo sapiens) (UniProt P00352)", "sequence (P00352 whole entry, looked up)": "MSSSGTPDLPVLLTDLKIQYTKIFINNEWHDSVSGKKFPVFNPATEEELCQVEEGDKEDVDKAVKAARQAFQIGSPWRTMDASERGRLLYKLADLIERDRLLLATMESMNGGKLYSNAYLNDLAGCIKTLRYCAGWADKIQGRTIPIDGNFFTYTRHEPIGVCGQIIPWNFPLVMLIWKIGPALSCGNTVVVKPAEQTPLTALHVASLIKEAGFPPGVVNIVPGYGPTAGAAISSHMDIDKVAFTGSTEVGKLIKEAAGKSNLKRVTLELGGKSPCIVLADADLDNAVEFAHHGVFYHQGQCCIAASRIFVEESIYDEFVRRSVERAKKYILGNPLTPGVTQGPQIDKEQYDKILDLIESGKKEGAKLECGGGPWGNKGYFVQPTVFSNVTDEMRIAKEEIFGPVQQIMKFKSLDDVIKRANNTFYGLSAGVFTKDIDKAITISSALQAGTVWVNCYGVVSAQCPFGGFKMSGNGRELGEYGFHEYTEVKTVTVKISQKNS", "assay": "qHTS Assay for Inhibitors of Aldehyde Dehydrogenase 1 (ALDH1A1)", "details": "Purified ALDH1A1, NADH fluorescence, propionaldehyde substrate; series mostly up to 75.3 µM", "values": [
      {"compound": "N#CC(=C1CCCC1)c1nc(-c2cc3ccccc3oc2=O)cs1", "Potency": "inconclusive [inhibitor, partial curve]"},
      {"compound": "Cc1cc(=O)[nH]c(SCC(=O)OCc2ccccc2)c1C#N", "Potency": "inactive"},
      {"compound": "CCOC(=O)c1sc2nc(CC(=O)OC)nc(NCc3ccc(Cl)cc3)c2c1C", "Potency": "inconclusive [inhibitor, partial curve]"},
      {"compound": "O=C(Nc1cccnc1)C1CCN(S(=O)(=O)c2cccc3nonc23)CC1", "Potency": "inactive"},
      {"compound": "S=C(NCc1ccccc1)NCc1ccccc1", "Potency": "inconclusive [inhibitor, partial curve, poor fit]"},
      {"compound": "C=CCOC(=O)C1=C(C)NC(SC)=C(C#N)C1c1ccc(OCC)cc1", "note": "(stereo unspecified)", "Potency": "active: 20 µM"},
      {"compound": "O=C(Cc1ccc(F)cc1)N1CCN=C1SCc1ccc([N+](=O)[O-])cc1", "Potency": "inactive"},
      {"compound": "O=C(O)COc1ccccc1C(Nc1cccnc1)c1cc(Cl)c2cccnc2c1O", "note": "(stereo unspecified)", "Potency": "inactive"},
      {"compound": "O=C(Oc1ccc(N(Cc2cccs2)C2=NS(=O)(=O)c3ccccc32)cc1)c1ccccc1", "Potency": "inconclusive [inhibitor, partial curve]"},
      {"compound": "COc1ccc(Cl)cc1S(=O)(=O)n1ccnc1C(C)C", "Potency": "inconclusive [inhibitor, single point]"},
      {"compound": "O=C(c1cccc(S(=O)(=O)N2CCCC2)c1)c1cccc(S(=O)(=O)N2CCCC2)c1", "Potency": "inactive"},
      {"compound": "CCOc1ccc2nc(NC(=O)c3cc([N+](=O)[O-])ccc3N3CCOCC3)sc2c1", "Potency": "inconclusive [inhibitor, partial curve]"},
      {"compound": "CCOc1ncccc1C(=O)OCc1c(F)cccc1Cl", "Potency": "inconclusive [inhibitor, single point]"},
      {"compound": "CC(=O)OCC(=O)[C@@]1(O)CCC2C3CC[C@H]4CC(O)CC[C@@]4(C)C3C(=O)C[C@]21C", "note": "(stereo partly specified)", "Potency": "inactive"},
      {"compound": "Cc1occc1C(=O)Nc1nnc(-c2ccncc2)s1", "Potency": "inconclusive [inhibitor, single point]"},
      {"compound": "Cc1ccc(NC(=O)CSc2nnc(Cc3ccccc3)o2)cc1", "Potency": "inconclusive [inhibitor, single point]"},
      {"compound": "O=C(NC(=S)Nc1nc(-c2ccccc2)cs1)c1ccco1", "Potency": "active: 14.1 µM"},
      {"compound": "CC(CN1CCOCC1)OC(=O)Cc1ccc(Cl)cc1", "note": "(stereo unspecified)", "Potency": "inconclusive [inhibitor, single point]"},
      {"compound": "CC1(C)C(c2ccc(Cl)cc2)=[N+]([O-])C2(CCCC/C2=N\\O)N1O", "note": "(stereo unspecified)", "Potency": "inactive"},
      {"compound": "CCOC(=O)C1=C(Cc2ccc(C)cc2)C(=O)c2ccccc2C1=O", "Potency": "inconclusive [inhibitor, single point]"},
      {"compound": "S=c1[nH]nc(-c2ccc3ccccc3n2)n1-c1cc(Cl)cc(Cl)c1", "Potency": "inconclusive [inhibitor, partial curve, poor fit]"},
      {"compound": "CC1CCCN(C(=O)c2ccc(CNc3c(N4CCCCC4)c(=O)c3=O)cc2)C1", "note": "(stereo unspecified)", "Potency": "inconclusive [inhibitor, single point]"},
      {"compound": "CCCN1CNc2c(c(=O)[nH]c(=S)n2-c2ccc(Cl)cc2)C1", "Potency": "inconclusive [inhibitor, single point]"},
      {"compound": "COc1ccc2nc(NC(=O)Cc3cccs3)sc2c1", "Potency": "inactive"},
      {"compound": "Cc1cc(C(C)(C)C)oc1C(=O)N(CC(=O)NC1CCCC1)Cc1ccccc1Cl", "Potency": "inconclusive [inhibitor, partial curve]"},
      {"compound": "Cc1ccc(S(=O)(=O)N=S(CC2CC2(Cl)Cl)CC2CC2(Cl)Cl)cc1", "note": "(stereo unspecified)", "Potency": "inconclusive [inhibitor, partial curve]"},
      {"compound": "CC(C)NC(=O)c1cc(C(=O)c2cc(Cl)ccc2O)coc1=N", "Potency": "inconclusive [inhibitor, partial curve]"},
      {"compound": "O=C(N/N=C/c1cccc(OC(=O)N2CCOCC2)c1)c1cccs1", "Potency": "inactive"},
      {"compound": "CCC(CC)NC(=O)CO/N=C/c1ccccc1OC(F)F", "Potency": "inactive"},
      {"compound": "CCn1c(C)nc2cc(C(=O)NNC(=O)CCC3CCCCC3)ccc21", "Potency": "inconclusive [inhibitor, single point]"},
      {"compound": "Cc1ccc(NC(=S)NNC(=S)Nc2ccc(C)cc2C)cc1", "Potency": "active: 0.447 µM"},
      {"compound": "Cn1c(N2CCOCC2)nc(-c2ccccc2)c1-c1ccccc1", "Potency": "inconclusive [inhibitor, partial curve]"},
      {"compound": "COc1ccc(-c2c(N)n[nH]c2C)cc1OC", "Potency": "inconclusive [inhibitor, single point]"},
      {"compound": "COCCOn1c(SCCOC)nc2ccccc2c1=O", "Potency": "inconclusive [inhibitor, single point]"},
      {"compound": "Cc1ccc(-n2c(N)c(C(=O)N3CCOCC3)sc2=S)cc1", "Potency": "active: 3.16 µM"},
      {"compound": "CN(C)C(=O)COC(=O)c1ccccc1OCC(=O)Nc1ccc(SC(F)F)cc1", "Potency": "inconclusive [inhibitor, single point]"},
      {"compound": "CCOc1ccccc1NC(=O)CC(O)(C(F)(F)F)C(F)(F)F", "Potency": "inconclusive [inhibitor, single point]"},
      {"compound": "COCCn1c(=O)c(-c2ccc(OC)cc2)nc2cnc(N3CCOCC3)nc21", "Potency": "inconclusive [inhibitor, single point]"},
      {"compound": "Cc1nc(SCc2ccccc2)c2ccsc2n1", "Potency": "inconclusive [inhibitor, single point]"},
      {"compound": "Cn1cnnc1SCCCN1C(=O)c2cccc3cccc(c23)C1=O", "Potency": "inconclusive [inhibitor, single point]"},
      {"compound": "CC(=O)C1=C(C)NC(SCC(N)=O)=C(C#N)C1c1sccc1C", "note": "(stereo unspecified)", "Potency": "inconclusive [inhibitor, single point]"},
      {"compound": "Cc1ccccc1Nc1nc(N)nc(COC(=O)/C=C/c2ccco2)n1", "Potency": "inconclusive [inhibitor, single point]"},
      {"compound": "Cc1nccn1-c1ccc(C(F)(F)F)cc1[N+](=O)[O-]", "Potency": "inconclusive [inhibitor, single point]"},
      {"compound": "CCOC(=O)C(NC(=O)CC)(Nc1ccccc1)C(F)(F)F", "note": "(stereo unspecified)", "Potency": "inactive"},
      {"compound": "NCCC(=O)c1ccccc1N", "Potency": "inactive"},
      {"compound": "Cc1nc(NCC2CCCO2)nc2c1C(=O)CC(C)(C)C2", "note": "(stereo unspecified)", "Potency": "inconclusive [inhibitor, partial curve]"}
    ]}
  ]
}
